Measurements as given in the BET-seq Pho4 binding data (Le et al. 2018).
Some of the results follow. Values were computed here from the reads of four pooled replicates and scatter widely.

The sequences below were run against T1, Pho4 (S. cerevisiae) (UniProt P07270) (assay: relative binding free energy (BET-seq); higher = weaker binding). Conditions: reference: library average.
T1 sequence: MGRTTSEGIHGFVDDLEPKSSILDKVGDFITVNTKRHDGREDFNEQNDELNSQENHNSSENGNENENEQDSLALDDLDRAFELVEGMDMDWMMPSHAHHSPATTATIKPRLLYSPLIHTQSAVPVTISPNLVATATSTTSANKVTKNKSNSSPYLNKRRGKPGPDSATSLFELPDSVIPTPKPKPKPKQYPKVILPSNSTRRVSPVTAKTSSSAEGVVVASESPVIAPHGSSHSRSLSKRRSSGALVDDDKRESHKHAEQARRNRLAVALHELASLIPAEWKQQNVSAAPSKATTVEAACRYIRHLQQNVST

| Sequence | relative binding free energy [kcal/mol] |
| --- | --- |
| TGTTTCACGTGCTTCA | 0.26 |
| GAGGGCACGTGACGTA | 0.19 |
| GGGATCACGTGATGTT | 0.4 |
| CATATCACGTGGTAGG | 0.07 |
| GGTTCCACGTGCGCGT | 0.09 |
| TAGTACACGTGTGAAG | 0.01 |
| GGAGTCACGTGTAGCG | 0.05 |
| TAATGCACGTGAATTA | 0.31 |
| GTCTTCACGTGTTGTC | 0.36 |
| ATATGCACGTGATAGG | -0.03 |
| AATATCACGTGTCGTT | 0.07 |
| CGGGGCACGTGCGTTA | -0.22 |
| TGGGTCACGTGAGATC | 0.28 |
| ATCTGCACGTGGGTCG | -0.12 |
| TTGTACACGTGAAGCG | 0.24 |
| GTGTGCACGTGGATCA | 0.11 |
| TGTTACACGTGTAGCG | 0.05 |
| TTGAGCACGTGGTATA | -0.13 |
| GTTCTCACGTGAGGGT | 0.38 |
| GGTGACACGTGGTGAA | -0.04 |
| TTACTCACGTGGATGG | 0.18 |
| GCGTACACGTGGGGAG | 0 |
| TGTACCACGTGTGATT | 0.16 |
| CGTCTCACGTGGGGGA | 0 |
| ACGAGCACGTGTGTGT | -0.17 |

| Sequence | relative binding free energy [kcal/mol] |
| --- | --- |
| TTTGTCACGTGTCGGG | 0.16 |
| CAGGGCACGTGCTGTG | -0.23 |
| GAGTCCACGTGGTGTG | 0.05 |
| GACTGCACGTGGGAGT | -0.01 |
| GTCGGCACGTGGGGGG | -0.16 |
| GAGCTCACGTGTATTG | 0.35 |
| GCTCGCACGTGGTGTT | -0.16 |
| TGGGCCACGTGTTTTG | 0.05 |
| TAAGTCACGTGGTATA | -0.07 |
| ATATACACGTGTTAAT | -0.05 |
| AAAATCACGTGTGGTT | 0.18 |
| TGGGTCACGTGGTCGG | 0.04 |
| CTGGACACGTGGGGAT | -0.02 |
| TGTAACACGTGTATCT | -0.05 |
| AGGTCCACGTGTGGTT | 0.09 |
| TGTGTCACGTGTCGCG | -0.02 |
| AGCAGCACGTGTGGAT | 0.1 |
| TAATTCACGTGGTTCT | 0.16 |
| TTGTGCACGTGATATT | 0.05 |
| CGTTGCACGTGAGGGT | 0.2 |
| TGGGGCACGTGGACCG | -0.13 |
| GGTAACACGTGTTATT | 0.06 |
| GGAATCACGTGGCGGG | 0.12 |
| TTCTTCACGTGTACGT | 0.27 |
| GGTCGCACGTGTATTA | 0.22 |

| Sequence | relative binding free energy [kcal/mol] |
| --- | --- |
| CGTTTCACGTGGTAGG | 0.32 |
| GGGATCACGTGGTCGA | 0.12 |
| AGGACCACGTGCGGTG | -0.07 |
| AGGTGCACGTGAGTCA | 0.14 |
| TGTAACACGTGGGGGA | -0.15 |
| TTGTACACGTGCTAGT | -0.04 |
| GGTACCACGTGTGCGT | -0.06 |
| CGATACACGTGGGGAG | -0.06 |
| GTGCGCACGTGGGTTG | -0.24 |
| GGATTCACGTGAGCGT | 0.28 |
| CTGGGCACGTGAGGAG | 0.08 |
| TTGTGCACGTGCTGGC | -0.04 |
| TAATGCACGTGGTCTT | -0.06 |
| GGGGGCACGTGTGCCG | -0.18 |
| TTGGCCACGTGTGCGA | -0.13 |
| AGATGCACGTGAAAGT | 0.15 |
| GTAGACACGTGGCGGT | -0.07 |
| TATGACACGTGGGATG | -0.12 |
| GGTTACACGTGGGACT | 0.12 |
| ACGTTCACGTGTTATT | 0.14 |
| GGTTTCACGTGATTGA | 0.44 |
| GTCAGCACGTGGCAGT | 0.06 |
| CTTTTCACGTGAATTA | 0.44 |
| GGACACACGTGTGGGG | 0.03 |
| AGCATCACGTGATGGT | 0.23 |

| Sequence | relative binding free energy [kcal/mol] |
| --- | --- |
| TTATGCACGTGGTGTC | -0.17 |
| CGAGTCACGTGTTTAT | 0.14 |
| GTTGTCACGTGGGATA | 0.09 |
| GGGGTCACGTGTATCT | 0.05 |
| TGAGTCACGTGAACGG | 0.29 |
| GTCTACACGTGTTGGA | 0.13 |
| CTGCTCACGTGTGTTT | 0.15 |
| GCTGGCACGTGTCGGG | 0.09 |
| ATTGCCACGTGCGGGG | -0.22 |
| TACAGCACGTGGGTGC | -0.16 |
| GAGTTCACGTGAGTGG | 0.46 |
| TTAATCACGTGTATAG | 0.24 |
| TAGGGCACGTGTAGGG | -0.11 |
| CTGTACACGTGGGATG | -0.13 |
| CGGTTCACGTGGGGCT | 0.19 |
| GGGGACACGTGAGTGA | 0.32 |
| ATTTACACGTGAACGG | 0.28 |
| TGGTCCACGTGCGTAT | 0.06 |
| GTCATCACGTGAGGTA | 0.27 |
| ATTTCCACGTGAAGTG | 0.4 |
| TTGCACACGTGTGGGT | 0.05 |
| TTTGCCACGTGTGTTT | -0.07 |
| ATTGACACGTGAGTAG | 0.29 |
| ATATTCACGTGGAAAT | 0.41 |
| GGAAGCACGTGTGAGA | 0.05 |

| Sequence | relative binding free energy [kcal/mol] |
| --- | --- |
| TGAGGCACGTGATTCG | -0.21 |
| GAAGGCACGTGGGGGG | -0.17 |
| ATATTCACGTGTGAGT | 0.32 |
| AGGTTCACGTGTCGTA | 0.22 |
| GGCGGCACGTGTCGTG | -0.05 |
| AATCGCACGTGGTTTG | -0.09 |
| ATTGTCACGTGCGAAG | 0.12 |
| ATCGTCACGTGTGCGG | 0.08 |
| ATGATCACGTGTACGT | 0.15 |
| GCGCGCACGTGTGGGA | -0.01 |
| AGTAGCACGTGCGGTG | -0.2 |
| CTTGTCACGTGGAAGA | 0.33 |
| CCGGACACGTGTGGGA | 0.21 |
| GGTGGCACGTGCAGGG | -0.05 |
| GAGCGCACGTGGTGGG | -0.12 |
| CGATGCACGTGGTTTG | -0.15 |
| CTGATCACGTGGGTTG | 0.02 |
| GTAGGCACGTGCGTTC | -0.07 |
| TAAGACACGTGTTTGA | -0.03 |
| AAGCACACGTGGTGGG | 0.08 |
| AAGACCACGTGGGTTG | -0.01 |
| GGTGCCACGTGGGGTG | -0.17 |
| TGGTGCACGTGCGGAG | 0.02 |
| ATTTCCACGTGGGCGT | -0.07 |
| ATAATCACGTGTCTGT | 0.17 |

| Sequence | relative binding free energy [kcal/mol] |
| --- | --- |
| ATATTCACGTGTATGC | 0.19 |
| CTATTCACGTGGGGCA | 0.23 |
| TGGTGCACGTGGTGGA | -0.06 |
| GTGGCCACGTGTGGCG | -0.09 |
| ATTAGCACGTGAGTTA | 0.24 |
| GATTTCACGTGGGCGA | 0.45 |
| TATGACACGTGGTGAT | -0.05 |
| GGCGCCACGTGGCTGG | -0.09 |
| ATGGTCACGTGTGGAC | 0.24 |
| AGTTTCACGTGGGGAT | 0.14 |
| AGTGGCACGTGTTTCA | -0.23 |
| TTAAACACGTGGGATG | -0.12 |
| TGAGCCACGTGTTTAG | 0.07 |
| CGTGTCACGTGGTTAT | 0.07 |
| GCGTTCACGTGGGTTT | 0.31 |
| GTAAGCACGTGGATGA | -0.06 |
| TTGATCACGTGCGATT | 0.22 |
| AGTGTCACGTGGTAGC | 0.09 |
| TGGTGCACGTGATACT | 0.05 |
| CTTCGCACGTGGTTAT | -0.06 |
| TTAGTCACGTGCTTGT | 0.12 |
